# Test results taken from PubChem BioAssay AID488969 (Vanderbilt High Throughput Screening Facility, 2010).
# Whole data set: some 110,000 compounds, median “z-score” near -0.1, cut for the highest 2% near 2. The list shows a part of the results.
# Target: Metabotropic glutamate receptor 8 (Rattus norvegicus) (UniProt P70579)
# Assay: mGluR8 Gi/Go-coupled signaling modulation – cell-based, rat, thallium flux, HTS, primary screen (AID 488969)
# Settings: HEK293 rat mGluR8, GIRK (G protein-gated inwardly rectifying potassium channel) thallium flux, FluoZin2; at 10 µM; stronger effect = higher value; submaximal glutamate (EC20) added with thallium
# UniProt P70579, sequence (P70579 whole entry, looked up): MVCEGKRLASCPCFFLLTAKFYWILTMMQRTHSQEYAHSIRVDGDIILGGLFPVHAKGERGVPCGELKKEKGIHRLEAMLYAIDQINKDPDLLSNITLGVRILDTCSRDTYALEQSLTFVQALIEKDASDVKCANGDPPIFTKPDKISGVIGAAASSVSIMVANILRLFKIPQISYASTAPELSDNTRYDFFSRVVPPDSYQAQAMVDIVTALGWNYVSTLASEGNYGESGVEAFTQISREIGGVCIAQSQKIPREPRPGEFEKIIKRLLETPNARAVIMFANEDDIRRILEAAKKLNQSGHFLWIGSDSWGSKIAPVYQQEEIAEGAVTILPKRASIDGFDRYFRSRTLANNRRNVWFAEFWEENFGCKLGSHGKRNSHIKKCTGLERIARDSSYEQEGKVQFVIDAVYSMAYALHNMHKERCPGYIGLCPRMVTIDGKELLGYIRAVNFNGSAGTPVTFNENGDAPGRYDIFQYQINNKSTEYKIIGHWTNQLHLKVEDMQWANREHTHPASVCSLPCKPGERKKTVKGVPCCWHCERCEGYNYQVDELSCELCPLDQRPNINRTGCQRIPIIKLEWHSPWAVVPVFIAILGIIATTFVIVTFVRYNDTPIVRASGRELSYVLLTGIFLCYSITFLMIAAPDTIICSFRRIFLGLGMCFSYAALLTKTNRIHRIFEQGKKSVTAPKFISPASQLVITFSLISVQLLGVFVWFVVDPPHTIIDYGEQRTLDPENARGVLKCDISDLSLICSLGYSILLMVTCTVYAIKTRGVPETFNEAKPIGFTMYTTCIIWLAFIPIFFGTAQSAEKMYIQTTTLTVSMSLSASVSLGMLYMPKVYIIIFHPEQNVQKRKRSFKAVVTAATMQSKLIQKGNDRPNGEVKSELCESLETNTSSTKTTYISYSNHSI
row,SMILES,z-score
1,Cc1ccccc1-n1cnc2cc(NCc3cccs3)ccc21,-0.526
2,CCOC(=O)c1c(-c2ccccc2)c(C(C)=O)c(=O)n(C)c1C,-0.57
3,CC(C)(C)OC(=O)COc1cc(OCC(=O)OC(C)(C)C)c2c(=O)cc(-c3ccccc3)oc2c1,-0.331
4,O=C(COC(=O)c1cccc(S(=O)(=O)N2CCc3ccccc32)c1)Nc1ccc(Cl)cn1,-0.0888
5,Brc1ccc(/C=N/N2CCN(C3c4ccccc4-c4ccccc43)CC2)s1,-0.108
6,O=c1c2ccccc2sc2ccc(Cl)cc12,-0.316
7,Cc1ccc(NC(=O)c2cccc(OCc3c(C)noc3C)c2)cc1,-1.3
8,Cc1cc(C)c(S(=O)(=O)NCC2CCC(C(=O)NCc3ccc4c(c3)OCO4)CC2)c(C)c1 (stereo not drawn),-0.0319
9,COc1ccc(Oc2nc3ccccc3n(C)c2=O)cc1,-0.0152
10,Cc1cccc(OCC(O)CNC(=O)c2ccccc2C(=O)O)c1 (stereo not drawn),-0.291
11,COC(=O)NC1(C(F)(F)F)C(=O)NC(C)=C1C(=O)OC (stereo not drawn),0.302
12,CCN(CC)S(=O)(=O)c1ccc2oc(C(=O)NCCCN3CCOCC3)c(C)c2c1,-0.251
13,O=C(NCCc1ccc2c(c1)OCCO2)c1cc(F)cc(F)c1,0.0341
14,CC(=O)c1ccccc1NS(=O)(=O)c1c(C)nn(-c2ccccc2)c1C,-0.405
15,O=C(CN1CC(=O)Oc2ccccc21)OCC(=O)c1ccc(Br)cc1,-0.236
16,COCCn1c(SCC(=O)Nc2cccc(OC)c2)nnc1-c1ccc(Cl)cc1,-0.443
17,CCOC(=O)C1C(=O)NCC1c1ccccc1 (stereo not drawn),-0.0823
18,CC(=O)N(c1c(C)n(C)n(-c2ccccc2)c1=O)C1(C(=O)NC2CCCCC2)CCCCC1,0.00808
19,O=C(CCSc1nc(-c2ccco2)cc(C(F)(F)F)n1)NCC1CCCO1 (stereo not drawn),0.272
20,Cc1cc(NC(=O)CSc2nc3c(sc4ccccc43)c(=O)n2CCCN2CCOCC2)n[nH]1,-0.235
21,CCOC(=O)c1cc(-c2ccccc2)n(CCC(=O)N2CCN(c3ccccn3)CC2)c1C,-0.389
22,CCc1c(C(=O)NCc2ccccc2Cl)[nH]c(C)c1C(C)=O,-0.281
23,O=C(CSc1nnc(CN2CCOCC2)n1-c1ccc(Cl)cc1)Nc1ccc2c(c1)OCO2,-0.298

row,SMILES,z-score
1,Cc1nn(CCc2n[nH]c(=S)n2-c2cccc(Cl)c2)c(C)c1[N+](=O)[O-],-0.293
2,CC(C)NC(=O)CSc1nnc2sc3ccccc3n12,0.284
3,O=C(NC1CCCCC1)c1cccs1,0.0843
4,CCOC(=O)CSCC(=O)Nc1c(C(=O)C2CC2)oc2ccccc12,-0.266
5,Cc1cc(C)n2nc(S(=O)(=O)N(C)c3ccccc3)nc2n1,0.215
6,Cc1cc(NC(=O)CCC(=O)N(Cc2ccco2)C(C(=O)NC2CCCC2)c2ccccc2C)no1 (stereo not drawn),-0.43
7,O=C(Nc1nnc(C2CCCO2)s1)c1ccc(Br)cc1 (stereo not drawn),0.12
8,Cc1ccc(-c2cc(C(F)(F)F)c(C#N)c(SCCC#N)n2)o1,0.109
9,CCN1CCCC1CN(Cc1cc2ccc(C)cc2[nH]c1=O)C(=S)Nc1cccc(OC)c1 (stereo not drawn),0.197
10,CCO/N=C(\C)c1c(O)c(CC)c(-c2ccccc2)n(-c2ccccc2)c1=O,-0.255
11,CCOC(=O)CNC(=O)CCNS(=O)(=O)c1ccc2c(c1)c(=O)n(C)c(=O)n2C,0.282
12,CCOC(=O)C1=C(C)OC(N)=C(C#N)C1c1cc(F)ccc1F (stereo not drawn),-2.09
13,CCOC(=O)N(NC(=O)C(O)(c1ccccc1)c1ccccc1)c1ccccc1,-0.387
14,N#C/C(=C(/O)CN1CCN(c2ccccc2F)CC1)c1nc(-c2ccccc2)cs1,-0.12
15,CCOCC(=O)Nc1nnc(C2CCCCC2)s1,0.0573
16,CN(C)C(=O)c1c(NC(=O)c2ccco2)sc2c1CCCCC2,0.93
17,CCOC(=O)c1[nH]c2cc(OC)c(OC)cc2c1N,-0.0417
18,CC(=O)c1c(N2CCN(Cc3ccc4c(c3)OCO4)CC2)nc(=S)n(-c2ccccc2)c1C,0.042
19,CCOc1ccccc1Oc1coc2cc(OC(=O)c3ccco3)ccc2c1=O,0.327
20,O=S(=O)(N/N=C1/CC(c2ccccc2)Oc2ccccc21)c1ccc(Br)cc1 (stereo not drawn),-0.0137
21,COc1ccc(/C=C/C(=O)C(C(N)=O)=C2SCCS2)cc1,-0.134
22,COc1ccc(CNC(=O)C(c2cccs2)N(Cc2ccco2)C(=O)Cc2cccs2)cc1 (stereo not drawn),-0.565
23,CCN(c1ccccc1)S(=O)(=O)c1ccc(Cl)c(NC(=O)CSc2nncn2C)c1,-0.151

row,SMILES,z-score
1,COC(=O)c1cccc(NC(=O)CSc2nc(C)cc(=O)[nH]2)c1,-0.438
2,O=C(c1ccccc1F)N1CCN(Cc2ccccc2F)CC1,-0.179
3,O=c1c2ccccc2nnn1Cc1nnc(-c2ccccc2Br)o1,0.68
4,CCCC(=O)Nc1ccc(Sc2ccc([N+](=O)[O-])cc2)cc1,0.077
5,C=CCn1c(=NC(=O)c2ccco2)sc2cc(C(=O)OC)ccc21,0.103
6,CCOC(=O)c1cc2c(ccn2C)n1CC(=O)N(Cc1ccccc1)c1ccccc1,1.36
7,O=C(O)c1cccc(N/N=C/c2cc(Br)cc(Br)c2O)c1,-0.753
8,Cc1cccnc1NC(=O)Nc1cccs1,-0.232
9,O=C1Nc2c(c(=O)[nH]c(=O)n2-c2ccccc2)C(C(F)(F)F)(C(F)(F)F)N1,-0.42
10,COc1ccc(-c2cc(C(F)(F)F)n3nc(C(=O)N4CCCCC4)cc3n2)cc1OC,-0.217
11,CCOC(=O)N1CCN(CC(O)COCc2ccc(Cl)cc2)CC1 (stereo not drawn),-0.1
12,Cc1ccc(C(=O)CSc2nnc(CNc3ccc(C)cc3C)o2)cc1,0.0375
13,O=C(CN1CCOCC1)Nc1ccccc1NC(=O)C1CCN(c2ncccn2)CC1,-0.305
14,CC(C)CC(c1nnnn1Cc1ccco1)N1CCN(C2CCCC2)CC1 (stereo not drawn),-0.0906
15,O=C(NCc1ccco1)c1ccc(Cn2c(=O)c3sccc3n(Cc3cccc(F)c3)c2=O)cc1,-0.444
16,Cc1c(Cl)c(C(=O)NC2C3CC4CC(C3)CC2C4)nn1C (stereo not drawn),0.0524
17,CCOc1ccc(-c2csc(Cn3c(CN4CCN(C)CC4)nc4ccccc4c3=O)n2)cc1,-0.838
18,O=C(c1cccnc1)N1CCN(Cc2ccccc2Br)CC1,0.625
19,Cn1c(C(=O)NC2CCCCCC2)cc2c(=O)n(C)c3ccccc3c21,-1.23
20,CCOC(=O)C(C)Oc1nc(Oc2ccccc2)nc(N(C)C)n1 (stereo not drawn),0.243
21,Cc1ccc(CNS(=O)(=O)N(C)C)cc1,-0.481
22,O=C(NC(=S)NCC1CCCO1)c1ccc([N+](=O)[O-])cc1 (stereo not drawn),-0.067
